In the supplement of paper PMC12217912:
The other results are listed elsewhere or left out. The full chains were built here from the parent and the listed change. Inactive controls read about 0.05.

B1: TEV protease; numbered along this chain (parent)
chain: MGESLFKGPRDYNPISSSICHLTNESDGHTTSLYGIGFGPFIITNKHLFRRNNGTLVVQSLHGVFKVKDTTTLQQHLVDGRDMIIIRMPKDFPPFPQKLKFREPQREERICLVTTNFQTKSMSSMVSDTSCTFPSGDGIFWKHWIQTKDGQCGSPLVSTRDGFIVGIHSASNFTNTNNYFTSVPKNFMELLTNQEAQQWVSGWRLNADSVLWGGHKVFMVKPEEPFQPVKEATQL

Variants of: B1
Assay: raw area under fraction-flipped curve 0-4 h after induction (AUC4h, not background-subtracted), DNA-recorder readout of cleavage of the substrate (dimensionless); higher = more cleavage of the substrate by the protease variant
Conditions: temperature: 34 °C; time window: 0-4 h after rhamnose induction
Method: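 In vivo DNA recorder in E. coli TOP10(DE3) ΔrhaA at 34 °C. Each TEVp single-site mutant (parent TEVp 0) is paired with a single-site variant of the 7-mer TEVs (canonical ENLYFQ|S). The substrate sits between flexible linkers in a Bxb1-sfGFP-TEVs-SsrA fusion, so cleavage stabilises Bxb1 and speeds flipping of a recombination array, read by NGS. The value is the raw area under the fraction-flipped curve over 0-4 h after rhamnose induction (AUC4h), with ≥20 reads per time point. It is not background-subtracted; inactive controls average about 0.047.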
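Also: Bxb1 expression induced with 0.2% (w/v) L-rhamnose at OD600 near 0.5, cultures sampled hourly, flipped fraction per protease–substrate barcode pair counted by paired-end Illumina sequencing.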

Row | Variant | area with substrate ENLCFQS | area with substrate ENLDFQS | area with substrate ENLEFQS | area with substrate ENLFFQS | area with substrate ENLKFQS | area with substrate ENLNFQS | area with substrate ENLPFQS | area with substrate ENLQFQS | area with substrate ENLRFQS | area with substrate ENLSFQS | area with substrate ENLVFQS | area with substrate ENLWFQS | area with substrate ENLHFQS | area with substrate ENLIFQS | area with substrate ENLLFQS | area with substrate ENLGFQS | area with substrate ENLMFQS | area with substrate ENLTFQS
1 | T71N | 0.0599 | 0.0691 | 0.0575 | 0.115 | 0.0881 | 0.0758 | 0.047 | 0.0672 | 0.0657 | 0.0755 | 0.0875 | 0.0585 | – | – | – | – | – | –
2 | V165W | 0.0557 | – | – | 0.0657 | 0.0431 | 0.0541 | 0.0781 | 0.0527 | 0.0577 | 0.0592 | – | – | 0.0521 | 0.0438 | 0.068 | – | – | –
3 | G202D | 0.0665 | – | 0.053 | 0.0554 | 0.0682 | 0.0599 | – | 0.0724 | 0.0856 | 0.0451 | 0.0608 | – | – | 0.0569 | 0.0457 | 0.0861 | – | –
4 | R50M | 0.066 | 0.045 | 0.0598 | 0.0203 | 0.0936 | 0.0562 | – | – | – | – | 0.0727 | 0.0676 | – | – | – | – | 0.068 | –
5 | N178G | 0.0448 | 0.059 | – | – | – | 0.0682 | – | – | 0.0484 | – | 0.075 | 0.0651 | – | 0.088 | – | – | – | –
6 | L73D | 0.0521 | 0.0499 | 0.0572 | 0.0547 | 0.0587 | 0.053 | 0.0567 | – | 0.0636 | 0.0504 | – | – | 0.0437 | 0.0781 | 0.0587 | 0.0773 | 0.0482 | –
7 | L73K | 0.0638 | 0.0549 | 0.0523 | – | – | 0.0544 | 0.0571 | – | 0.037 | 0.0482 | – | 0.055 | – | – | – | – | – | –
8 | S127Q | 0.0798 | 0.087 | 0.0074 | 0.129 | 0.0751 | 0.0467 | – | 0.0676 | – | 0.0641 | – | – | 0.0823 | – | – | 0.0721 | – | –
9 | K230H | 0.0682 | 0.0676 | – | – | 0.0904 | 0.0772 | 0.0642 | – | – | 0.0859 | – | 0.0255 | 0.0693 | – | – | – | – | –
10 | D161I | 0.0623 | 0.0532 | 0.0585 | 0.0645 | 0.0642 | 0.0414 | 0.0334 | 0.0529 | – | 0.0285 | – | 0.0633 | 0.0646 | 0.0587 | 0.0507 | 0.0702 | 0.0636 | –
11 | E223S | 0.0738 | 0.065 | 0.084 | 0.0922 | 0.0867 | – | 0.0635 | 0.044 | 0.083 | 0.0681 | – | 0.0709 | 0.0802 | – | – | – | – | –
12 | V157P | 0.0472 | 0.0535 | 0.0466 | 0.0456 | 0.0479 | 0.0594 | 0.0526 | – | 0.0488 | 0.0554 | – | – | 0.0512 | – | 0.057 | – | – | 0.0578
13 | M125Q | 0.0828 | 0.0597 | 0.0662 | 0.0929 | 0.0799 | 0.0576 | 0.0527 | 0.0743 | 0.0495 | 0.0552 | – | – | 0.0587 | 0.0924 | 0.0765 | 0.0602 | 0.0692 | –
14 | M125G | 0.0791 | 0.0654 | – | 0.084 | – | 0.0636 | – | – | 0.0717 | – | – | 0.0492 | 0.0887 | – | 0.0635 | 0.0611 | 0.088 | –
15 | Q151D | 0.0577 | 0.0532 | 0.0593 | 0.0846 | 0.052 | 0.0668 | 0.0543 | – | 0.072 | 0.059 | 0.0902 | 0.0896 | 0.087 | 0.0893 | – | 0.0787 | – | –
16 | G213V | 0.0635 | – | – | 0.0971 | 0.0616 | 0.0811 | – | – | – | – | – | – | 0.0636 | – | 0.0525 | 0.0739 | – | –

Row | Variant | area with substrate ENLCFQS | area with substrate ENLDFQS | area with substrate ENLEFQS | area with substrate ENLFFQS | area with substrate ENLKFQS | area with substrate ENLNFQS | area with substrate ENLPFQS | area with substrate ENLQFQS | area with substrate ENLRFQS | area with substrate ENLSFQS | area with substrate ENLVFQS | area with substrate ENLWFQS | area with substrate ENLHFQS | area with substrate ENLIFQS | area with substrate ENLLFQS | area with substrate ENLGFQS | area with substrate ENLMFQS | area with substrate ENLTFQS
17 | A207Q | 0.0702 | 0.0786 | – | 0.103 | – | – | – | – | 0.0621 | – | – | – | – | 0.0746 | 0.0519 | – | – | –
18 | Q197A | 0.0591 | 0.0554 | 0.109 | 0.0938 | – | 0.0654 | 0.0526 | 0.0497 | 0.0744 | – | – | – | 0.0403 | 0.056 | – | 0.083 | – | –
19 | P225H | 0.0745 | – | – | 0.0804 | 0.0719 | 0.076 | 0.0551 | – | – | 0.0613 | – | – | 0.0692 | – | 0.0748 | – | 0.0695 | –
20 | R102P | 0.0436 | 0.0319 | 0.0475 | 0.0463 | – | 0.0436 | 0.0416 | 0.0465 | 0.0611 | 0.0496 | 0.0496 | 0.0432 | 0.0687 | – | 0.0379 | – | – | –
21 | F65H | 0.0711 | 0.058 | – | 0.0776 | 0.0884 | 0.049 | – | – | 0.075 | 0.0704 | – | 0.0387 | – | – | – | – | – | –
22 | I145L | 0.0654 | – | 0.0585 | 0.0965 | – | – | – | – | – | – | – | – | – | 0.0769 | – | – | – | 0.0689
23 | G63S | 0.0699 | 0.0618 | 0.0582 | 0.0889 | 0.0701 | 0.0672 | – | – | 0.0813 | 0.0579 | – | 0.0696 | 0.0648 | 0.0715 | – | 0.0683 | – | –
24 | T115L | 0.0802 | – | 0.0645 | 0.0915 | 0.0799 | – | 0.0554 | – | 0.0784 | 0.0534 | 0.0869 | 0.0654 | 0.0769 | – | – | – | – | –
25 | R87C | 0.072 | 0.0622 | 0.0592 | 0.0863 | 0.0632 | – | – | – | – | 0.0746 | – | – | 0.049 | – | 0.0338 | – | – | –
26 | R87I | 0.0495 | 0.0597 | – | 0.0706 | – | 0.052 | 0.055 | 0.0579 | 0.0754 | 0.0718 | 0.0551 | – | 0.06 | – | 0.0625 | 0.0568 | 0.0544 | 0.0638
27 | L77Q | 0.064 | 0.0657 | – | 0.0614 | 0.0621 | 0.0624 | 0.0556 | – | – | 0.0601 | – | 0.0588 | 0.045 | 0.0668 | 0.0241 | – | – | –
28 | P228K | 0.0856 | – | 0.0661 | 0.131 | 0.079 | 0.0631 | 0.0391 | – | – | – | – | 0.0627 | 0.0673 | – | 0.0635 | – | 0.0808 | 0.0493
29 | N53Y | 0.0931 | 0.0589 | – | 0.0706 | 0.067 | 0.0609 | 0.0407 | – | 0.0604 | 0.0525 | 0.0735 | 0.0555 | 0.0557 | 0.0615 | 0.059 | – | – | –
30 | V113I | 0.0681 | – | 0.0354 | 0.0719 | 0.083 | 0.0809 | – | 0.0704 | – | 0.0678 | – | 0.0629 | 0.046 | – | – | – | – | –
31 | G150D | 0.0472 | 0.0651 | 0.0665 | 0.0405 | 0.0327 | 0.051 | – | 0.0641 | – | 0.0428 | – | – | 0.0542 | – | – | – | – | –
32 | G150I | 0.0688 | 0.0615 | 0.0623 | 0.0622 | 0.0552 | 0.063 | 0.0462 | 0.0521 | 0.05 | 0.0566 | – | 0.055 | 0.0307 | 0.0918 | 0.0707 | – | 0.0629 | –
